This series concerns the molecule itself. Description: thioflavin S fluorescence aggregation assay.

We go through one protein from paper PMC7530023 (Molecular neurobiology, 2020).

B1: K18 fragment of tau (the R1–R4 core domain) (domain or fragment)
chain: not shown
As for B1, the binding result is given as “binds”.
